Reference: PubChem BioAssay (NCATS)
The inconclusive results got no clear call from the source; some entries with a clear call stand among them for comparison. Potencies of inconclusive entries are left out as doubtful fits. Calls of active or inactive are those of the source. The call rests on the fitted dose curve; in most records, active means well fitted inhibition curve with a large enough effect; inconclusive means small, poorly fitted or top-dose-only effect; inactive means no such curve, though single readings can be large or run the other way.

Experiment: qHTS Screen of the MIPE 4.0 Collection Against Ewings Sarcoma (EW8) (AID 1259255); further: nearly all actives have a fitted effect of over 35% in size;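 on viability: 100% = DMSO-treated cells and 0% = medium-only wells without cells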
Details: EW8 Ewing sarcoma viability, CellTiter-Glo, 48 h; series mostly up to 45.8 µM; viability: at the top concentration
Procedure, shortened: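 Measured: ATP luminescence (CellTiter-Glo) 10 min after reagent addition, following 48 h drug treatment. Relative luciferase units converted to percent activity, with no-cell wells as full and DMSO wells as zero inhibition.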
Potency means the concentration at half of the fitted maximal effect; tags describe the fitted curve by direction and shape.

| SMILES | Potency | viability |
| --- | --- | --- |
| Cc1ccc(C(=O)N(CCCN)[C@@H](c2nc3cc(Cl)ccc3c(=O)n2Cc2ccccc2)C(C)C)cc1 | inconclusive [inhibitor, partial curve, poor fit] |  |
| Cc1c(C)c2c(c(C)c1O)CCC(C)(COc1ccc(CC3SC(=O)NC3=O)cc1)O2 (centres undefined) |  | inactive: 103% |
| CCOC(=O)[C@H]1O[C@H]1C(=O)N[C@@H](CC(C)C)C(=O)NCCC(C)C | inconclusive [inhibitor, partial curve] |  |
| CCOc1cc(C=C2C(=O)N(c3ccccc3)N=C2C)cc(Cl)c1OCC(=O)OC | inconclusive [inhibitor, partial curve, poor fit] |  |
| OCCn1cc(-c2cnc3nnn(Cc4ccc5ncccc5c4)c3n2)cn1 |  | inactive: 115% |
| CCN1CCN(CC(=O)Nc2ccc(-c3cccc4c(=O)cc(N5CCOCC5)oc34)c3sc4ccccc4c23)CC1 | active: 16.6 µM |  |
| CCCCCCNC(=O)n1cc(F)c(=O)[nH]c1=O | inconclusive [inhibitor, partial curve] |  |
| COc1ccccc1[C@H](c1cccc2ccccc12)[C@@](C)(C#N)C(=O)N1CCC(c2cccc(C(F)(F)F)c2)CC1 | active: 6.62 µM |  |
| Cn1c(=O)c(-c2c(Cl)cccc2Cl)cc2cnc(Nc3cccc(C(=O)O)c3)nc21 | inconclusive [inhibitor, full curve, poor fit] |  |
| Nc1ccn([C@@H]2O[C@H](CO)[C@@H](O)C2O)c(=O)n1 (some centres undefined) |  | inactive: 121% |
| Nc1[nH]nc2nnc(-c3c(-c4ccccc4)nn4ccccc34)cc12 | inconclusive [inhibitor, partial curve] |  |
| Cc1cc2c(C(C)C)c(O)c(O)c(C=O)c2c(O)c1-c1c(C)cc2c(C(C)C)c(O)c(O)c(C=O)c2c1O | active: 11.8 µM |  |
| Cc1cc(SCc2sc(-c3ccc(C(F)(F)F)cc3)nc2C)ccc1OCC(=O)O | inconclusive [inhibitor, partial curve, poor fit] |  |
| C[C@@H](c1ncncc1F)[C@](O)(Cn1cncn1)c1ccc(F)cc1F | inconclusive [inhibitor, single point] |  |
| C[C@@H](N)C1CCC(C(=O)Nc2ccncc2)CC1 (some centres undefined) |  | inactive: 121% |
| Clc1ccc(Nc2nnc(Cc3ccncc3)c3ccccc23)cc1 | inconclusive [inhibitor, single point] |  |
| COc1ccc(-c2oc3c(CC=C(C)C)c(O)cc(O)c3c(=O)c2O)cc1 | inconclusive [inhibitor, single point] |  |
| Cc1ccc(S(=O)(=O)Nc2cc(Cl)ccc2C(=O)Nc2nc(-c3ccccc3)cs2)cc1 | active: 16.6 µM |  |
| CC(C)Oc1cc(Nc2nc(N[C@@H](C)c3ccc(F)cn3)ncc2Cl)[nH]n1 | inconclusive [inhibitor, single point] |  |
| CN1CC[C@@H](c2c(O)cc(O)c3c(=O)cc(-c4ccccc4Cl)oc23)[C@@H](O)C1 | active: 0.118 µM |  |
| COc1cc2c(Oc3ccc4[nH]c(C)cc4c3F)ncnc2cc1OCCCN1CCCC1 | active: 23.5 µM |  |
| COC(=O)c1ccc2c(C(=Nc3ccc(N(C)C(=O)CN4CCN(C)CC4)cc3)c3ccccc3)c(O)[nH]c2c1 | active: 3.32 µM |  |
| CCn1c(-c2nonc2N)nc2cnc(Oc3cccc(NC(=O)c4ccc(OCCN5CCOCC5)cc4)c3)cc21 | active: 11.8 µM |  |
| CCc1cc(Nc2nccc(-c3c(-c4ccc(OC)c(C(=O)Nc5c(F)cccc5F)c4)nc4ccccn34)n2)c(OC)cc1N1CCC(N2CCN(S(C)(=O)=O)CC2)CC1 | active: 18.7 µM |  |
| Cc1nn(Cc2ccccc2Cl)c(C)c1CN(C)CC(O)COc1ccc(Cl)cc1 (centres undefined) | inconclusive [inhibitor, single point] |  |
| Cc1nc2cnc3ccc(C#Cc4cccnc4)cc3c2n1-c1ccc(C(C)(C)C#N)cc1 | active: 0.118 µM |  |
| CCc1cccc(CC)c1NC(=O)N1Cc2[nH]nc(NC(=O)c3ccc(N4CCN(C)CC4)cc3)c2C1 | inconclusive [inhibitor, full curve] |  |
| COc1cc2ncnc(Nc3cccc(Br)c3)c2cc1OC | active: 1.48 µM |  |
| Cc1nc(NC(=O)N2CCC[C@@H]2C(N)=O)sc1-c1csc(C(C)(C)C)n1 | inconclusive [inhibitor, partial curve] |  |
